Measured values: PubChem BioAssay AID2451 (National Center for Advancing Translational Sciences (NCATS), 2010)
In all, about 290,000 compounds went through this assay and about 2,100 (0.72%) were called active. This list was built around the results that the source calls inconclusive (neither active nor inactive); the mix of calls is not that of the screen. Calls come from the whole dose curve; as a rule, active = well fitted inhibition curve with a large enough effect; inconclusive = small, poorly fitted or top-dose-only effect, or effect the other way; inactive = flat fitted curve, though single readings scatter. A potency beside an inconclusive call is a rough fit, not a confirmed value.

Each molecule was assayed against Fructose-bisphosphate aldolase (Giardia intestinalis (strain ATCC 50803 / WB clone C6)) (UniProt A8B2U2) (assay: qHTS Assay for Inhibitors of Fructose-1,6-bisphosphate Aldolase from Giardia Lamblia). Settings: purified Giardia FBPA; series mostly up to 59.6 µM.
Chain of UniProt A8B2U2 (A8B2U2 whole entry, looked up): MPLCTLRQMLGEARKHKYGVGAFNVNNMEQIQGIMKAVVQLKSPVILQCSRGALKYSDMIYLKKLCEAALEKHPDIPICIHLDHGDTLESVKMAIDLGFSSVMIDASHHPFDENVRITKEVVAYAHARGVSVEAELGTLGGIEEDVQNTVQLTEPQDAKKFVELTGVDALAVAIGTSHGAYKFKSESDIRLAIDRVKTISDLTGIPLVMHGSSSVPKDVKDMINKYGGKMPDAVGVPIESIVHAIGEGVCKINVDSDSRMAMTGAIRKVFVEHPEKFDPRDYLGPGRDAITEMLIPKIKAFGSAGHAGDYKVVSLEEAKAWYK
Outline: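 Giardia FBPA (40 nM reagent) was preincubated 10 min at RT with compound (up to 57.5 uM final), then substrate plus GAPDH/TPI/NAD/arsenate coupling system with diaphorase/resazurin was added; resorufin fluorescence (525/598 nm) was read after 20 min.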
Note: nearly all actives have a fitted effect of over 55% in size.
Potency is the fitted concentration of half-maximal effect; tags give direction and shape of the fitted curve.

SMILES	Potency
CCOC(=O)N1CCN(C(=O)CSCc2ccccc2)CC1	inactive
Cc1ccc(CNc2ccc3c(c2)OCO3)c(C)c1	inconclusive: 7.94 µM [inhibitor, partial curve]
CC(=O)N(Cc1ccc(F)cc1)C1=C(NCc2ccccc2)C(=O)c2ccccc2C1=O	inconclusive: 0.354 µM [inhibitor, full curve]
CN(CCO)c1cc(Sc2nc3ccccc3s2)c2nonc2c1[N+](=O)[O-]	inactive
CCc1c(C)nc2c(-c3ccccc3)c(C)[nH]n2c1=O	inconclusive: 31.6 µM [inhibitor, single point]
Cc1cc(C)cc(OCC(=O)NC2=NCCS2)c1	inactive
CCCCOc1ccc(N2C(=O)CC(N(O)c3ccccc3)C2=O)cc1 (stereo unspecified)	inactive
S=C(NCc1ccc2[nH]c3c(c2c1)CCCC3)Nc1ccccc1	inactive
Cc1cccc(-n2c(SCc3cc(=O)n4ccsc4n3)nc3ccccc32)c1	inconclusive: 25.1 µM [inhibitor, partial curve, poor fit]
C/C(=C\c1ccccc1)CN1CCN(C)CC1	inconclusive: 4.47 µM [inhibitor, full curve]
Cc1ccc(C)c2[nH]c(=O)c(CN(CC3CCCO3)C(=S)NCc3ccco3)cc12 (stereo unspecified)	inactive
Cc1ccc(-c2ccc(C(=O)Nc3cccc(F)c3)o2)c2ccccc12	inconclusive: 17.7 µM [inhibitor, single point]
Cc1ccc(S(=O)(=O)N2CCN(C(=O)CN3CCc4ccccc4C3)CC2)cc1	inconclusive: 15.8 µM [inhibitor, single point]
CC(=O)c1ccc(OCC(O)CN2CCN(Cc3ccccc3)CC2)cc1 (stereo unspecified)	inconclusive: 17.7 µM [inhibitor, single point]
CCCCN1C(=O)C(C)=C(C)C1OCCc1ccc(OC)c(OC)c1 (stereo unspecified)	inactive
O=c1[nH]c(SCCN2CCOCC2)nc(O)c1-c1ccccc1	inactive
CC1=NN(c2ccccc2)C(=O)C1C=Nc1ccc(N(C)C)cc1 (stereo unspecified)	inconclusive: 19.9 µM [inhibitor, partial curve]
Brc1ccc(OCCN2CCOCC2)cc1	inconclusive: 25.1 µM [inhibitor, single point]
C=C(Cl)COc1ccc2c(C)cc(=O)oc2c1	inactive
CC(NC(=O)CCc1nnc(CCCc2ccccc2)o1)c1ccccc1 (stereo unspecified)	inactive
CCOC(=O)c1c(NC(=O)C(C)NCc2ccco2)sc2c1CCC(C)C2 (stereo unspecified)	inconclusive: 17.7 µM [inhibitor, single point]
CN1CCN(c2cc(N3CCCC3)c([N+](=O)[O-])cc2F)CC1	inactive
C=CC1=C2C=C(C3CC3)N(C3CCCC3)C=C2C(=O)C(C)(OC(=O)c2ccco2)C1=O (stereo unspecified)	inconclusive: 0.792 µM [inhibitor, partial curve]
COc1ccc(NC(=S)N(CCCN2CCOCC2)C(C)c2cc3cccc(OC)c3o2)cc1 (stereo unspecified)	active: 11.2 µM
Cc1nc(NCc2ccccc2)c2nc(-c3ccccc3)n(CCCN(C)C)c2n1	inactive
O=C(Nc1nnc(-c2cccs2)o1)C1CC1	inconclusive: 17.7 µM [inhibitor, single point]

SMILES	Potency
CCOc1ccc(N(C(=O)c2cc3ccccc3oc2=O)C2C=CS(=O)(=O)C2)cc1 (stereo unspecified)	inactive
O=c1c2c3nc4ccccc4nc3n(Cc3ccccc3)c2ncn1Cc1ccco1	inconclusive: 15.8 µM [inhibitor, partial curve]
COc1ccc(CCn2c(-c3ccncc3)n[nH]c2=S)cc1OC	inconclusive: 19.9 µM [inhibitor, partial curve]
CS(=O)(=O)c1cc([N+](=O)[O-])c(Sc2nc3ccccc3[nH]2)c([N+](=O)[O-])c1	inconclusive: 15.8 µM [inhibitor, partial curve]
O=C(O)c1ccc([N+](=O)[O-])c(CS(=O)(=O)c2ccccc2)c1	inactive
O=S(=O)(Nc1nc2ccccc2nc1Cl)c1ccccc1C(F)(F)F	inconclusive: 28.2 µM [inhibitor, single point]
CCC(=O)Nc1ccc(Cl)c(-c2nc3ncccc3o2)c1	inactive
O=C(CSc1ncn[nH]1)CSc1ncn[nH]1	inconclusive: 15.8 µM [inhibitor, partial curve]
Cn1cc2ccc(N)cc2n1	inconclusive: 0.889 µM [inhibitor, full curve]
O=C(O)c1ccc(CSc2nnc(SCc3ccccc3)s2)cc1	inconclusive: 19.9 µM [activator, partial curve]
CC(C)N(CCO)C(=O)CCc1nnc(Cc2cccc(C(F)(F)F)c2)o1	inactive
COc1ccc(/C=C/C(=O)O)cc1COc1cccc(C)c1	inconclusive: 15.8 µM [activator, single point]
Cc1cccc(OCC(=O)N/N=C/c2ccc3c(c2)OCO3)c1	inactive
O=C1OC(c2ccccc2)=N/C1=C\C=C\c1ccccc1[N+](=O)[O-]	inactive
OCCN(CCO)c1nc(N2CCCCC2)c2nc(N(CCO)CCO)nc(N3CCCCC3)c2n1	inactive
Cc1cc(O)c(C=O)c2c1C(=O)Oc1c(CO)c(O)c3c(c1O2)C(O)OC3=O (stereo unspecified)	inconclusive: 17.7 µM [inhibitor, partial curve]
COc1cc(C(=O)Oc2cc(N)n(S(=O)(=O)c3ccc(F)cc3)n2)cc(OC)c1OC	inactive
CCC(C)(C)n1nnnc1CN(Cc1ccc(Cl)cc1)Cc1ccco1	inactive
CC[C@@H]1[C@H]2CCCC(=O)N3CC[C@@H](C[C@@H]1OC(=O)Nc1ccccc1)[C@@H]23	inactive
CNC(=O)/C(C#N)=C/c1ccc(-c2ccccc2[N+](=O)[O-])o1	inconclusive: 3.54 µM [inhibitor, full curve, poor fit]
COc1ccccc1C(=O)Nc1ccc2[nH]ncc2c1	inactive
CN(C)S(=O)(=O)Oc1ccsc1C(=O)Nc1ccc(Cl)c(Cl)c1	inactive
CCOc1ccc(CN(C)CC(=O)Nc2cccc(S(=O)(=O)N(C)c3ccccc3)c2)cc1	active: 19.9 µM
COc1cc2c(cc1OC)CN(CC(=O)Nc1ccc(C)cc1)CC2	inactive
O=C(Nc1cc(Cl)cc(Cl)c1)C(NCCO)c1ccccc1 (stereo unspecified)	inconclusive: 15.8 µM [inhibitor, partial curve]
